# In patent US9446018B2, “Pharmaceutical composition for treating or preventing angina or myocardial infarction induced by myocardial ischemia” (SINPHAR TIAN-LI PHARMACEUTICAL CO., LTD. (HANGZHOU), priority 2009, dated 2016):
# Tests used:
# Conditions in all cases: rat; 7 days + IP after ligation; isosorbide dinitrate 18.75 mg/Kg, STA-2 low dose 250 mg/Kg, Aspirin 8.3 mg/Kg; mean ± SEM
# [1] = test system: lactate dehydrogenase (LDH) in serum
# [2] = test system: creatinine phosphokinase (CPK) in serum
# [3] = test system: nitric oxide (NO) in serum
smiles,measurement,setting,value
CC(=O)Oc1ccccc1C(=O)O [Aspirin],Serum LDH concentration (unit/ml),[1],8.27 ± 1.05 unit/ml
same,Serum CPK concentration (unit/ml),[2],7.14 ± 1.00 unit/ml
same,Serum NO concentration,[3],33.2 ± 2.90 µM
